Molecules are shown by their SMILES. This is one part of the list.

For the experiment, the system named is T1, C. trachomatis L2/434/Bu expressing GFP (CTL2-GFP).
T1 construct: L2/434/Bu GFP intracellular growth in HeLa cells
The arrangement: species or system HeLa; C. trachomatis total inclusion area by high-content imaging, normalised to DMSO. The note with it: total inclusion area; 28.5 h, 10 µM; inhibitor. The method, boiled down:
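Bulk GFP and resorufin signals were read first. Wells were then fixed, stained with Hoechst and imaged to detect GFP inclusions and host nuclei. MICs followed the previously described calculation.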
On to `Cc1cc2cccc(NC(=O)NCc3cncn3CC(C)C)c2o1` [CBK306715], for which the “% of control remaining” value is 58.5324.
For the compound `C[C@H]1[C@@H]2[C@@H](O)C([C@H](C)C(=O)N3CCCC3)CC[C@@]2(C)CC[C@@H]1NC(=O)c1ccccc1` (some centres unmarked) [CBK289441], the “% of control remaining” value was 105.479.
Regarding `CC(=O)Nc1nc2c3ccccc3n(C(C)=O)c2s1` [CBK011360], the “% of control remaining” value was found to be 75.8636.
To `O=C(O)CCC(C(=O)O)N1C(=O)c2cc(Cl)c(Cl)cc2C1=O` (centres unmarked) [CBK264156] belongs 104.992.
To `CCOc1ccc(NC(=O)C(C)Sc2nc3ccc(F)cc3[nH]2)cc1` (centres unmarked) [CBK266047] belongs 93.8381; to `COc1ccc2c(c1)CC(=O)NC21CCN(Cc2c(F)cccc2F)CC1` [CBK039835], 77.4287.
As to `O=C(CSc1ccc(Cl)cc1)Nc1ccc(CN2CCOCC2)cc1` [CBK305855], the “% of control remaining” value stood at 37.4896.
Next, `O=C(NCCc1ccccc1)c1cc(-c2ccccc2Cl)[nH]n1` [CBK288113]: 106.862; `CCC(CC)Oc1ccc(C2(C)NC(=O)NC2=O)cc1` (centres unmarked) [CBK288409]: 71.6216; `CC1CCC(C(N)=O)CN1C(=O)c1csc(Br)c1` (centres unmarked) [CBK305812]: 59.6232.
To `COc1ccc2[nH]cc(CC(=O)N3CCCC4(CCN(C(=O)c5ccc(OC)c(OC)c5)C4)C3)c2c1` (centres unmarked) [CBK131666] belongs 101.82.
To `O=C1c2ccccc2S(=O)(=O)N1CC(O)Cn1ccc2ccccc21` (centres unmarked) [CBK267905] belongs 106.652; to `C=CCNC(=O)N[C@H]1[C@H](O)[C@@H](N2CCCC2)[C@@H]2OC[C@H]1O2` [CBK288829], 107.148.
`CCCCC(=O)N(C)c1c(CC)nc2c(OCc3ccc(C#N)cc3)cccn12` [CBK147779]: the “% of control remaining” value is reported as 93.0533.
To `O=S(=O)(Oc1ccccc1)c1ccc2c(c1)Cc1cc(S(=O)(=O)Oc3ccccc3)ccc1-2` [CBK231928] belongs 83.4607; to `COc1ccc(N2CCN(CC(O)c3c[nH]c4cc(OC)ccc34)CC2)cc1` (centres unmarked) [CBK286355], 96.6052; to `CCOC(=O)C1CCCN(Cc2ccc3c(c2)OCO3)C1` (centres unmarked) [CBK074569], 85.8367.
On to `O=C(O)c1cccc(C(=O)Nc2cccc(NC(=O)C3CCCO3)c2)c1` (centres unmarked) [CBK268566], for which the “% of control remaining” value turned out to be 104.773.
Next, `O=C(CCS(=O)(=O)c1ccccc1)Nc1c(F)cc(F)cc1OC1CCNCC1` [CBK050226T]: 60.6556.
To `Clc1ccccc1C1N(Cc2ccccc2)CCN1Cc1ccccc1` [CBK261217] belongs 102.846; to `CC(=O)NCc1ccc(-c2ccc(C(=O)NC3(c4ccccc4)CCCC3)c(C)n2)cc1` [CBK285891], 91.5057.
Next, `FC(F)(F)CCN1CCC2(CC1)NCCc1c2[nH]c2ccc(Cl)cc12` [CBK039331]: 33.8496.
Regarding `COc1ccccc1NCc1c(O)c(Br)cc2oc3c(c12)CCCC3` [CBK160398], the “% of control remaining” value is on record as 29.5394.
To `Sc1nnc(COc2ccccc2)n1/N=C/c1cccnc1` [CBK265308] belongs 102.608; to `OCCN1CCN(C(c2cccs2)c2ccc3cccnc3c2O)CC1` (centres unmarked) [CBK296964], 43.1997.
Next, `CC(C)N1CCC2(C/C=C/CNC(=O)c3ccccc3OCCNC2=O)CC1` [CBK292094]: 124.206.
Next, `CN1C(=O)c2ccccc2C(=O)[C@@]2(C)CN(C(=O)C3CCCC3)C[C@@H]12` [CBK284570]: 105.164; `O=C(O)CCc1nc(-c2ccc3[nH]ccc3c2)no1` [CBK287070]: 101.99; `CCOC(=O)c1c(NC(=O)C2CCCCC2C(=O)O)sc(C)c1C` (centres unmarked) [CBK265469]: 94.5233.
For `Cc1ccc(CN(Cc2nccn2C)C2CC(C)(C)NC(C)(C)C2)o1` [CBK283190], the “% of control remaining” value came out at 50.6603.
To `O=C(O)C1C2CCC(O2)C1C(=O)Nc1cnn(Cc2ccccc2)c1` (centres unmarked) [CBK286849] belongs 110.625.
In the case of `Cc1c(C(=O)N2CCN(C3CC3)CC2)nnn1Cc1ccc(F)cc1F` [CBK305507], the “% of control remaining” value is on record as 40.0143.
Next, `O=C(Nc1cc2cccnc2nc1Cl)c1ccc(C(F)(F)F)cc1[N+](=O)[O-]` [CBK091348]: 87.888.
Regarding `CC(C)(C)c1ccc(-c2cnc(N)c(-c3ccc(C(=O)N4CCOCC4)cc3)n2)cc1` [CBK084543A], the “% of control remaining” value came to 60.4045.
In the case of `CCNc1nc(Sc2ccc(Cl)cc2)cc(C(F)(F)F)n1` [CBK003349], the “% of control remaining” value was 75.3528.
Next, `COc1ccc(C2CCCC(N(CCN(C)C)C(=O)Nc3ccc(F)c(F)c3)C2)cc1OC` (centres unmarked) [CBK059339C]: 58.9491; `COC(=O)c1ccc2c(=O)n(CC3CCCO3)c(SC)nc2c1` (centres unmarked) [CBK304535]: 82.3189.
Turning to `O=C1N=C(NC2CCCCCC2)S[C@@H]1CC1CCCCC1` [CBK070723], the “% of control remaining” value is given as 72.5867.
Next, `O=C(O)C1CCCN1S(=O)(=O)c1ccc2[nH]c(=O)c(=O)[nH]c2c1` (centres unmarked) [CBK266971]: 111.302.
With `O=C(c1c(F)cccc1F)N1CCN(c2ncccn2)CC1` [CBK144517], the “% of control remaining” value is 77.2991.
As to `Cn1c(/C=C/C=C/CN2CCN(Cc3ccccc3)CC2)nc2ccc([N+](=O)[O-])cc21` [CBK268281], the “% of control remaining” value is 95.5572.
To `CCCNc1nccnc1-c1cccc(Cl)c1Cl` [CBK088892] belongs 138.495; to `Cc1ccc2nc(N3CCCC(O)C3)c(CN3CCN(C)CC3)cc2c1` (centres unmarked) [CBK307710], 73.6616.
In the case of `COc1ccc(C(=O)Nc2cc(C)nn2-c2nc3ccccc3s2)cc1` [CBK287841], the “% of control remaining” value worked out at 86.5549.
Next, `COc1ccc(-n2c(SCc3nc4ccccc4[nH]3)nc3sc4c(c3c2=O)CCCC4)cc1` [CBK267558]: 106.956; `Cc1ccc(C(=O)C(NC(=O)c2ccco2)Nc2cccc3ccccc23)cc1` (centres unmarked) [CBK263856]: 69.9663.
In the case of `Cc1sc2nc(C)n(C3CCN(C(=O)C(C)C)CC3)c(=O)c2c1C` [CBK282414], the “% of control remaining” value is given as 108.809.
Next, `COc1ccccc1-c1nn2c(Cn3nnc4ccccc43)nnc2s1` [CBK268373]: 106.862; `CC(=O)Nc1ccc(CC(C(=O)O)c2ccccc2)cc1` (centres unmarked) [CBK286600]: 68.788.
Regarding `Cc1nc([N+](=O)[O-])c(N2CCN(C)CC2)n1Cc1ccccc1` [CBK261421], the “% of control remaining” value amounted to 101.334.

These data come from paper PMC12040169 (PLOS Biology, 2025).
